# Test results as given in PubChem BioAssay AID624417 (National Center for Advancing Translational Sciences (NCATS), 2012).
# Hit rate of the full screen: of about 410,000 compounds, about 6,400 (1.6%) were called active. The inconclusive results got no clear call from the source; some entries with a clear call stand among them for comparison. The call rests on the fitted dose curve; in most records, active means well fitted inhibition curve with a large enough effect; inconclusive means small, poorly fitted or top-dose-only effect; inactive means no such curve, though single readings can be large or run the other way. No potency is given beside an inconclusive call; the fits are too rough.
# Molecular target: Glucagon-like peptide 1 receptor (Homo sapiens) (UniProt P43220)
# Assay: qHTS of GLP-1 Receptor Inverse Agonists (Inhibition Mode); further: nearly all actives have a fitted effect of over 55% in size
# Conditions: HEK293 GLP-1R CRE-luciferase, luminescence, 24 h, GLP-1R form is constitutively active; activity change, negative = inhibition: at 38.3 µM (top of the series) unless noted
# How it was run: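 Assay principle: reduced luminescence from a cAMP-responsive reporter in HEK293 cells co-expressing a constitutively active GLP-1R. Conditions: 24 hr compound incubation, 37 deg C, 5% CO2.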
# On the % scale 0 is the no-effect control and ±100 the full control effect; potency means the concentration at half of the fitted maximal effect; tags describe the fitted curve by direction and shape.
# UniProt P43220, sequence (P43220 whole entry, looked up): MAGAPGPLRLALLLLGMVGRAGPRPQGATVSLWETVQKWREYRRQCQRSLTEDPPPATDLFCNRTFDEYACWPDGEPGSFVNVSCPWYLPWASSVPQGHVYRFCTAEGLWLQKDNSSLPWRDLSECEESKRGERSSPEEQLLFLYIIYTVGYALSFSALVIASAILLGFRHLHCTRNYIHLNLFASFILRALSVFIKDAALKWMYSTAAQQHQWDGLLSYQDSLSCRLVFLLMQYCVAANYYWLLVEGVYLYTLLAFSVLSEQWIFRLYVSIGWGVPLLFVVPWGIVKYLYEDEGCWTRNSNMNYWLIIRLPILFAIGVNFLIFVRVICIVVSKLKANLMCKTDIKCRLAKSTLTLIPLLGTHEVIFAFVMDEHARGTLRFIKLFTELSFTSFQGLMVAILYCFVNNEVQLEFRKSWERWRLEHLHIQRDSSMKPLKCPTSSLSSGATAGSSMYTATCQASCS
SMILES,Potency,"activity change, negative = inhibition"
COc1ccc(NCc2n[nH]nc2-c2ccccc2)cc1Cl,"inconclusive [inhibitor, single point]",
Cc1cccc(-c2noc(-c3ccc(N4CCN(C)CC4)c([N+](=O)[O-])c3)n2)c1,"inconclusive [inhibitor, full curve, poor fit]",
COc1cccc(N2CCN(CC(=O)c3c[nH]c4ccc(OC)cc34)CC2C)c1 (stereo not drawn),"inconclusive [inhibitor, partial curve, poor fit]",
O=C(Nc1nccs1)c1ccc(Cl)c(S(=O)(=O)N2CCCCC2)c1,"inconclusive [inhibitor, single point]",
COc1ccc(C)cc1NC(=O)c1ccc2c(c1)CCN2S(=O)(=O)c1ccc(Cl)cc1,inactive,
CC(C)Cc1nnc(NC(=O)CCc2c[nH]c3ccccc23)s1,"inconclusive [inhibitor, single point]",
CCOC(=O)c1ccc(CN(Cc2ccccc2C)S(=O)(=O)c2ccc(C(C)(C)C)cc2)cc1,inactive,
COc1cccc(C2C(C(=O)Nc3ccccc3)=C(C)Nc3nc(-c4ccccc4)nn32)c1OC (stereo not drawn),"inconclusive [inhibitor, single point]",
O=[N+]([O-])c1cc(Br)c(O)c(/C=N/Nc2nc3ccccc3s2)c1,active: 4.47 µM,
COc1ccc(-c2nn(-c3ccccc3)cc2C(=O)N2CCN(S(=O)(=O)c3cccc(F)c3)CC2)cc1,"inconclusive [inhibitor, single point]",
CCC(C)(C(=O)NC1CCCC1)N(Cc1cccs1)C(=O)Cc1cccs1 (stereo not drawn),"inconclusive [inhibitor, single point]",
Cc1ccc(NC(=S)/C(=C(\[O-])c2ccc(Cl)s2)[n+]2cccc(CO)c2)cc1C,"inconclusive [inhibitor, single point]",
Cc1ccc(-c2nn3c(C)nnc3s2)cc1NC(=O)c1ccc(-c2ccc(Cl)cc2Cl)o1,inactive,
COc1cc(C(=O)N/N=C(\Cc2ncc[nH]2)c2ccccc2)cc(OC)c1OC,"inconclusive [inhibitor, partial curve, poor fit]",
O=C(NC(=S)NCc1ccccc1)C1CCCCC1,"inconclusive [inhibitor, partial curve, poor fit]",
COc1cc2cc(-c3ccc(OC)c(OC)c3C)nc(N)c2cc1OC,"inconclusive [inhibitor, full curve, poor fit]",
CC(=O)Nc1ccc([N+](=O)[O-])cn1,inactive,
COc1ccc(-c2ccc(C(=O)NCC3CC3)c3occc23)c(C)c1,"inconclusive [inhibitor, partial curve, poor fit]",
NNc1ccc(Cl)c(C(=O)O)c1,inactive,
CC(=O)Nc1cc(-c2nc3ccccc3s2)ccc1C,inactive,
Cc1ccc(NC(=O)CSCC(=O)Nc2ccccc2N2CCCCC2)cc1,"inconclusive [inhibitor, partial curve, poor fit]",
Cc1cc(C)cc(NC(=O)C2CCCN2S(=O)(=O)c2cccc3nsnc23)c1 (stereo not drawn),inactive,

SMILES,Potency,"activity change, negative = inhibition"
CCc1ccc(CN(C)C(C)C(=O)NCc2ccccc2)cc1 (stereo not drawn),"inconclusive [inhibitor, partial curve, poor fit]",
CN(C)C1(CNC(=O)c2cccc(S(=O)(=O)NCc3ccccc3)c2)CCCCC1,"inconclusive [inhibitor, single point]",
COc1ccc(Nc2ccnc3ccccc23)cc1,"inconclusive [inhibitor, partial curve]",
CCCCCc1ccc(C(=O)CCC(=O)OCC(=O)N(CC)c2c(N)n(Cc3ccccc3)c(=O)[nH]c2=O)cc1,"inconclusive [inhibitor, single point]",
O=C1CC(c2ccc3c(c2)OCCO3)Oc2ccccc21 (stereo not drawn),"inconclusive [inhibitor, single point]",
CC(C)[C@H](NC(=O)c1ccccc1F)C(=O)Nc1ccc(F)c(F)c1,,inconclusive: -42.4% [inhibitor]
Cc1cc(-n2[nH]c(C)c(C)c2=O)nc(-c2ccccc2O)n1,inactive,
CCCC(=O)Nc1ccc(-c2nc3cc(C)c(C)cc3o2)cc1,inactive,
CCOc1ccc(CNC(=O)CCc2cn(C)c3ccccc23)cc1,"inconclusive [inhibitor, partial curve, poor fit]",
O=c1[nH]c2cccc(Cl)c2c2ccccc12,inactive,
CCN(CC(=O)Nc1ccc2c(c1)OCCO2)C(=O)c1cc(Cl)nc2ccccc12,inactive,
Cn1c(CSCc2ccccc2Cl)nnc1SCC(=O)Nc1nccs1,"inconclusive [inhibitor, single point]",
Cc1nc(SCc2cccc(C(=O)O)c2)nc2c1CCCC2,active: 8.91 µM,
Cn1ncc(C(=O)N2CCN(c3ccc(F)cc3)CC2)c1C1CCN(C(=O)OC(C)(C)C)CC1,inactive,
CCCN1C(=O)C(Cc2nc3ccccc3c(=O)n2-c2cccc(C)c2)c2ccccc21 (stereo not drawn),"inconclusive [inhibitor, single point]",
COc1cccc2sc(N(CCN(C)C)C(=O)/C=C/c3cccs3)nc12,"inconclusive [inhibitor, partial curve, poor fit]",
NS(=O)(=O)c1ccc(N/N=C/c2cn(-c3ccccc3)nc2-c2cccs2)cc1,"inconclusive [inhibitor, full curve, poor fit]",
c1ccc(-c2ccccc2OCCCCN2CCCCCC2)cc1,"inconclusive [inhibitor, single point]",
CC(C)Nc1ncnc2c1ncn2[C@H]1CN(Cc2ccc(-c3ccccc3)cc2)C[C@@H](CO)O1,"inconclusive [inhibitor, partial curve, poor fit]",
O=c1c2ccccc2sn1-c1ccc(F)cc1,inactive,
O=C(Nc1ccc(F)cc1F)N1CCCC(c2nc(-c3ccc(F)cc3)no2)C1 (stereo not drawn),"inconclusive [inhibitor, single point]",
